Experimental data taken from PubChem BioAssay AID1508624 (National Center for Advancing Translational Sciences (NCATS), 2021).
In all, about 48,000 compounds went through this assay and about 120 (0.25%) were called active. About 4% were inconclusive and are not listed. Calls follow the shape of the dose curve; as a rule, active = well fitted activation curve with a large enough effect; inconclusive = small, poorly fitted or top-dose-only effect, or another doubt; inactive = no such curve, though single readings can be large or run the other way. The list shows a part of the results.

Experiment: Primary qHTS for Identification of Small Molecule Activators of Huntingtin-Antisense Promoter Activity; also: nearly all actives have a fitted effect of over 55% in size
Details: HEK293 HTT-AS promoter firefly luciferase reporter, 24 h; series mostly up to 57.5 µM; activity change, positive = activation: at the top concentration
Procedure, shortened: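 HEK293 cells carrying firefly luciferase reporters were seeded at 2,500 per well in Opti-MEM and cultured for 24 h. They were then treated with compounds at up to 57.5 uM final for 24 h at 37 degrees C before Dual-Glo luminescence readout.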

Activity change, positive = activation, inactive:
COc1cc(NC(=O)c2cc(-c3cccs3)on2)c(OC)cc1Cl 9.57% [at 11.5 µM, percent change from vehicle, -100% = no light], CC(C)CCNC(=O)Nc1ccc2c(c1)N(C)C(=O)c1ccccc1S2 -25.1%, COC(=O)CS(=O)(=O)c1nc2ccccc2nc1N1CCCCC1 -5.15%, COCCCNc1ncnc2onc(-c3ccc(F)cc3)c12 -3.09%, COCCCNC(=O)CN1C(=O)COc2ccc(S(=O)(=O)N3CCCC3)cc21 -6.72%, Cc1ccc(NC(=O)Cn2c(=O)c3cc(Cl)ccc3n3nncc23)cc1 -8.59%, Cc1n[nH]c(C)c1S(=O)(=O)N(CC(=O)NC(C)c1ccccc1)c1ccc(C(C)C)cc1 (centres undefined) -22.7%, COc1ccc(C(=O)NCCn2cc(SCC(=O)NCCc3ccc(OC)c(OC)c3)c3ccccc32)cc1 -53.6%, COc1cccc(NC(=O)Cn2cnc3c(nc4n3CCCCC4)c2=O)c1 2.7%, CC1=C(c2ccc(C)c(C)c2)S(=O)(=O)N=C1N1CCC(C(=O)NCCc2ccco2)CC1 -17%, Cc1ccc(-c2cc(C(=O)N3CCN(S(=O)(=O)c4ccc(Br)cc4)CC3)[nH]n2)cc1C -15.2%, CC1=Nc2cc(C(=O)NC3CCCC3)ccc2Sc2ccc(C)cc21 -46.9%, COc1cccc(C(=O)Nc2ccccc2C(=O)OCc2cc(=O)n3c(C)csc3n2)c1 -20.1%, COc1ccc(NC(=O)Cn2c(C)cc3ccccc3c2=O)c(OC)c1 -9.85%, Cc1nn(-c2nc(-c3ccc(F)cc3)cc(C(F)(F)F)n2)c(C)c1Br -11.8%, COC(=O)c1cc(C)nc2c1c(=O)nc(SCc1cccc(C)c1)n2C1CC1 -12%, CCOc1ccc(CNC(=O)CCS(=O)(=O)c2cc3c(cc2Cl)NC(=O)CO3)cc1OC -0.291%, CCOC(=O)c1ccccc1NC(=O)Nc1cc2c(cc1N1CCCCC1)n(C)c(=O)n2C -3.58%, Cc1nn(-c2ccc(F)cc2)c(-n2cccc2)c1C(=O)NCCCN1CCN(c2ccccc2F)CC1 -30.9%, COc1cccc(NC(=O)CCc2c(C)nc3c4cccnc4nn3c2C)c1 -7.17%, O=C(Nc1ccc(N2CCC(c3ccccc3)C2)c(C(=O)O)c1)c1ccc(Cl)cc1 (centres undefined) -11.9%, CCOc1ccc(Oc2nc(NCC(C)C)nc(NC(C)(C)C)n2)nn1 -7.62%, COc1ccccc1OCC(=O)N(Cc1ccc(Cl)cc1)CC1CCCO1 (centres undefined) -18.3%, CCc1cccc(CC)c1NC(=O)c1ccc2c(c1)CCN2S(=O)(=O)c1ccccc1 -18.2%, CC(=O)c1ccc(NC(=O)CC2Nc3cccc4cccc(c34)NC2=O)cc1 (centres undefined) -23.6%, Cc1cccc(NC(=O)CN2C(=O)c3cccnc3Oc3ccc(Cl)cc32)c1C -33.5%, CSc1ccc(CCNC(=O)CCCn2nc(C)c3sc4ccccc4c3c2=O)cc1 -0.976%, CCc1cccc(NC(=O)CCS(=O)(=O)c2cc(Br)cc3c2N(C(C)=O)CC3)c1 -7.81%, COc1cc(OC)cc(C(=O)Nc2ccc3c(c2)N(C2CCCC2)C(=O)c2ccccc2S3)c1 -38.1%, O=C(NCc1ccccc1Cl)c1cc2ccccc2o1 15.2%, O=C(CSc1nc2ccccc2nc1Cc1ccccc1)N1CCCCC1 -18.9%, COc1cc(-c2nc3ncccn3c2Nc2ccc(C)cc2C)ccc1O -8.35%, CCOc1ccc(-c2nnc(SCC(=O)NCc3ccccc3)nc2-c2ccc(OCC)c(OC)c2)cc1OC -17.9%, CCc1ccc(C2CC(=O)Nc3c2c(C)nn3-c2nc(C)cc(C)n2)cc1 (centres undefined) -28.4%, CCOc1ccccc1NC(=O)N1CCN(Cc2nc3ccc(C)cc3o2)CC1 -13.2%, Cc1ccc(C)c(N2CCN(S(=O)(=O)c3c(C)nc4sccn4c3=O)CC2)c1 12.7%, Cc1cc(C)cc(-n2c(SCC(N)=O)nc3c(oc4ccccc43)c2=O)c1 -13.8%, CCCCOc1cccc(C(=O)Nc2ccc3oc(-c4cccnc4)nc3c2)c1 -24.1%, CCOc1ccccc1NC(=O)Cn1cnc2sc(C)c(S(=O)(=O)N3CCC(C)CC3)c2c1=O 9.48%, CCC(=O)NCC(c1ccc2c(c1)OCO2)N1CCN(c2ccccc2)CC1 (centres undefined) -10.6%, Cc1nc2ccccc2c(=O)n1-c1ccc(NC(=O)c2ccc([N+](=O)[O-])cc2)cc1 -18%, COc1ccc(-c2[nH]nc3nc(-c4cc(OC)c(OC)c(OC)c4)cc(C(=O)O)c23)cc1 -6.51%, COc1ccc(C(=O)Nc2nnc(S(=O)(=O)N(C)c3ccc(Cl)cc3)s2)cc1OC -31.2%, Cc1ccccc1CNC(=O)C(=O)NCC(c1ccco1)S(=O)(=O)c1ccccc1 (centres undefined) -12.9%, Cc1ccc(CCNC(=O)c2cn(C)c3ccc(S(=O)(=O)N4CCCCC4)cc3c2=O)cc1 6.92% [at 11.5 µM, percent change from vehicle, -100% = no light], CCCS(=O)(=O)N1CCCC(C(=O)NCCCOC)C1 (centres undefined) -3.48%, COc1c(Cl)cc2c([nH]c3cnccc32)c1NC(=O)c1cccnc1C 0.341%, CCCCCC=CCC=CCCCCCCCC(=O)OCC -1.56%, Cc1ccc2[nH]c(CSc3nnc(NC(=O)c4ccccc4C)s3)cc(=O)c2c1 -39.7%, COCCCNC(=O)c1cc(-c2cccnc2)nc2ccc(S(=O)(=O)N3CCC(C)CC3)cc12 -11.4%, CN1C(=O)C2(c3ccccc31)N(c1cccc(F)c1)C(=O)CS2(=O)=O (centres undefined) 11.2%, COc1ccc(Cl)cc1NC(=O)c1c(NCc2sccc2C)sc2c1CCCC2 -0.615%, Clc1ccccc1CNc1nc2ccccc2c2nc(-c3cccnc3)nn12 -11.3%, O=C(Cn1nnc(-c2ccc(Cl)cc2)n1)NCc1ccc(F)cc1 -8.32%, COc1ccc(OC)c(CNS(=O)(=O)c2c(C(=O)N3CCCCCC3)c(C)n(C)c2C)c1 -5.58%, O=S(=O)(c1ccc(Br)cc1)c1nc(-c2cccs2)oc1SCc1ccccc1F -1.39%, Cc1ccc(-n2ncc(C(=O)Nc3ccc4c(c3)OCO4)c2C2CCN(C(=O)OC(C)(C)C)CC2)cc1 -12.4%, Cc1ccnc(NS(=O)(=O)c2cc(-c3cc(C)no3)ccc2C)c1 -5.87%, CCc1ccc(N(CC)C(=O)Cn2c(=O)oc3ccccc32)cc1 1.27%, COc1ccc(NC(=O)C2CCCN(S(=O)(=O)c3ccc4c(c3)CCCC(=O)N4)C2)c(OC)c1 (centres undefined) -32%, Cc1nn(S(=O)(=O)c2ccc(F)cc2)c(C)c1S(=O)(=O)N1CCC(C)CC1 -9.54%, COc1cccc2cc(C(=O)NCCc3c(C)[nH]c4ccc(Br)cc34)c(=O)oc12 -19.7%, CCOC(=O)c1cc2c(=O)n3ccccc3nc2n(CC(C)C)c1=NC(=O)c1cc2ccccc2o1 -2.62%, Cc1ccc(S(=O)(=O)c2cn(Cc3ccc(F)cc3)c3cc(F)c(F)cc3c2=O)cc1 0%, CCOCCn1ccc2c(OCC(=O)Nc3ccc(OC(F)(F)F)cc3)cccc2c1=O -17.4%, O=C(CN1C(=O)CC(c2ccccc2)Sc2ccccc21)Nc1cccc(Cl)c1 (centres undefined) -38.5%, CC(=O)c1cccc(NC(=O)CCS(=O)(=O)c2ccc(Br)s2)c1 -1.11%, CC(C)(C)NC(=O)c1cnn2c(C(F)F)cc(-c3ccccc3)nc12 -8.43%, Cc1ccc(CCNC(=O)C2CCN(c3nnc(-n4cccc4CNc4ccc(C)cc4)s3)CC2)cc1 -39.1%, CCN(C(=O)Cn1c(=O)oc2cc(Cl)ccc21)c1cccc(C(F)(F)F)c1 -8.34%, COc1ccc(/C=C/C(=O)Nc2nc3n(n2)C(c2ccccc2)C=C(c2ccccc2)N3)cc1 (centres undefined) -24.1%, Cc1ccc(-c2cnc(NCc3ccc(C(F)(F)F)cc3)n2C)cc1 -10.6%, CC(C)c1cnc2c(c1SCC(=O)NCc1ccccc1)c(=O)n(C)c(=O)n2C -13.2%, CN(Cc1ccccc1)C(=O)CSc1nc2ccccc2n1Cc1ccccc1F -10.1%, Cc1ccccc1NC(=O)CSc1nc(=O)n(CCN2CCOCC2)c2c1CCC2 -1.64%, Cc1sc2c(c1C)c(=O)n(-c1cccc(C(F)(F)F)c1)c(=O)n2Cc1ccc(F)cc1 -6.63%, COC(=O)c1ccc(NC(=O)CCc2c(C)nc3c(c2C)c(=O)n(C)c(=O)n3C)cc1 -12.5%, COc1ccccc1Cc1nc2ccccc2nc1SCC(=O)Nc1cccc(Cl)c1C -9.89%, COc1cc(NC(=O)CSC2=Nc3ccccc3N=C(c3ccc(F)cc3)C2)cc(OC)c1 -22.8%, COc1ccc(CNC(=O)c2cnc3cc(C)ccn3c2=O)cc1 30.9%, COc1ccccc1N1CCN(C(=O)CCNS(=O)(=O)c2ccc3c(c2)CCN3C(=O)C2CC2)CC1 -16.2%, COc1ccc(Cl)cc1NC(=O)CSC1=Nc2ccccc2C2=NC(CC(=O)NCc3ccc4c(c3)OCO4)C(=O)N12 (centres undefined) -23.5%, Cc1ccc(NC(=O)c2cnc(SCC(=O)Nc3cc(C)on3)n(C)c2=O)cc1 4.8%, Cc1ccc(CNC(=O)Cn2cc(S(=O)(=O)Cc3ccccc3F)c3ccccc32)cc1 -11.7%, C=CCc1ccccc1OCC(O)CN1CCN(c2ccccc2)CC1 (centres undefined) -8.42%, COc1ccccc1C(=O)Nc1ccc2c(c1)nc(CN1CCCCC1)n2C -26.3%, Cc1cc(C)n2nc(SCC(=O)Nc3cccc(C(F)(F)F)c3)nc2n1 -33.3%, CCn1c(=O)n(CC)c2cc(N3CCCCC3)c(NC(=O)Nc3ccccc3C(F)(F)F)cc21 -34.4%, CCC(Oc1ccc(F)cc1)C(=O)Nc1nc(-c2ccc(F)cc2)ns1 (centres undefined) -45.2%, CCOC(=O)c1ccc(NC(=O)CC2C(=O)N(c3cccc(OC)c3)C(=O)N2Cc2ccc(OC)cc2)cc1 (centres undefined) -8.69%, CCc1ccc(-c2csc(-c3cc4cc(Br)ccc4oc3=O)n2)cc1 -27.1%, COc1ccc(C(=O)Nc2nnc(S(=O)(=O)N3CCOCC3)s2)cc1 -15.4%, Cc1nn(C(C)C(=O)NCc2cccc(F)c2)c(=O)c2c1sc1ccccc12 (centres undefined) -11.4%, CCN(CC)C(=O)Cn1cc(SCC(=O)Nc2ccc(C)cc2)c2ccccc21 -0.861%
